Values quoted from earlier work as cited in publication PMC11006913.
This is one part of the list.

Legend:
[1] = target: PROP1 R112Q (Homo sapiens) (UniProt O75360); conditions: PBM; conditions not shown; double strand, one strand shown; scale: upbm affinity estimate (log intensity, higher = more binding, comparable within an allelic series)
[2] = target: PROP1 R99Q (Homo sapiens) (UniProt O75360); conditions: PBM; conditions not shown; double strand, one strand shown; scale: upbm affinity estimate (log intensity, higher = more binding, comparable within an allelic series)

Row | Sequence | binding signal [1] | binding signal [2]
1 | AGGGAAAC [8-mer AGGGAAAC] | 10.9 | 10.9
2 | CCTGAAGG [8-mer CCTGAAGG] | 10.9 | 11
3 | GACGTTGC [8-mer GACGTTGC] | 11 | 11.1
4 | AATTGGAT [8-mer AATTGGAT] | 12.6 | 12
5 | CCCTAGCG [8-mer CCCTAGCG] | 10.7 | 10.9
6 | CCCGGGAC [8-mer CCCGGGAC] | 10.9 | 11
7 | ACCGAAAG [8-mer ACCGAAAG] | 10.9 | 11
8 | CCCCGGCC [8-mer CCCCGGCC] | 10.9 | 11
9 | AGCCCCGC [8-mer AGCCCCGC] | 10.8 | 11
10 | CCGGCCCG [8-mer CCGGCCCG] | 10.8 | 10.8
11 | CGGGTGAC [8-mer CGGGTGAC] | 10.9 | 10.9
